Screen size: about 7,900 compounds; about 400 (5.1%) showed an effect of 50% or more. Some of the results follow.
Molecular target: Parkinson's disease protein 7 (PARK7/DJ1) (human, UniProt Q99497)
Assay: primary screen, percent inhibition; read as competition with a fluorescent probe by fluorescence polarization; higher = more effect of the substance
Conditions: 100 µM
In short: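 Covalent fragments at 100 μM final were incubated 2 h with 0.2 μM PARK7, then 20 nM probe JYQ-107 added for a further 2 h. Fluorescence polarization read at 480/520 nm; relative FP loss versus reference controls gave remaining enzyme activity.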

Chain of Parkinson's disease protein 7 (PARK7/DJ1) (Q99497 whole entry, looked up): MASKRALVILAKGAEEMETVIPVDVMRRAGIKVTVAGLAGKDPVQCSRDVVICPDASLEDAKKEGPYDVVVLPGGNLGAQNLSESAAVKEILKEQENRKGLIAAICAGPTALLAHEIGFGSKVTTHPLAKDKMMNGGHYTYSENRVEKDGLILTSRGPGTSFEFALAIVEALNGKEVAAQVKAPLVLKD

| SMILES | Inhibition % |
| --- | --- |
| CN(C(=O)CCl)C1CCCCC1 | 92.5% |
| CSc1nnc(C#N)s1 | 6.56% |
| Cc1cc(C)n(CCCCl)n1 | 5.02% |
| CCC(=O)N1CCCC1C1CCCN1C1CCOC1=O (stereo not shown) | 8.79% |
| O=C(CCCl)NC1CCCCC1 | 3.8% |
| CC(C)(C)OC(=O)N1CCC(B2OC(C)(C)C(C)(C)O2)=CC1=O | 15.2% |
| Cc1cc(S(=O)(=O)n2ccnc2C)ccc1Cl | 2.45% |
| CC(C)n1nccc1NS(=O)(=O)C=Cc1ccccc1 | 11.2% |
| OB(O)c1ccc(C2CC2)cc1F | -1.81% |
| CCn1nccc1B1OC(C)(C)C(C)(C)O1 | 7.49% |
| N#Cc1ccc(N2CCCC(F)C2)cn1 (stereo not shown) | 3.27% |
| C=CC(=O)Nc1nc2cccnc2n1CC | 9.09% |
| CC1(c2ccccc2F)CNC1=O (stereo not shown) | -1.9% |
| CCOc1ccc(Cl)cc1S(=O)(=O)n1cccn1 | -1.82% |
| ClCCc1cscn1 | 5.31% |
| O=C1CC2(CCN(C(=O)OCc3ccccc3)CC2)N1 | 2.87% |
| O=C(CCl)N(Cc1cccs1)C1CC1 | 2.18% |
| OB(O)c1cccc(OCCN2CCCCC2)c1 | 9.09% |
| C=CC(=O)N1CCS(=O)(=O)C(C)C1C (stereo not shown) | 7.37% |
| Sc1nc(NC2CC2)c2ccccc2n1 | 7.62% |
| CC1CCC2(CC1)NC(=O)N(NC(=O)CCl)C2=O (stereo not shown) | 9.61% |
| O=S(=O)(F)c1ccc(S(=O)(=O)Nc2ccncc2)cc1 | 8.89% |
| C=CC(=O)N1CCCC(CC2CCOC2)C1 (stereo not shown) | 7.3% |
| C=CC(=O)N1CCCN(c2nc(CC)ns2)CC1 | 4.09% |
| C=CC(=O)N1CCN(C(=O)C2CCCN2C)CC1 (stereo not shown) | 12.4% |
| COc1ccc(CNc2oc(C)nc2C#N)cc1 | 6.66% |

| SMILES | Inhibition % |
| --- | --- |
| CC1(C)OB(c2ccc3c(c2)COCC(=O)N3)OC1(C)C | 2.89% |
| CC(C(=O)O)N1C(=O)CSC1=O (stereo not shown) | 13.7% |
| C=CC(=O)NCc1ccc(-c2csc(C)n2)o1 | 0.857% |
| C=CC(=O)N1CCc2ccc(Cl)cc2C1 | 3.77% |
| CC1(C)OB(c2cnc(N3CCC(O)CC3)nc2)OC1(C)C | 2.94% |
| CCn1cc(C2NC(=O)C23CCOCC3)cn1 (stereo not shown) | 2.01% |
| N#Cc1ccc(N2CCc3sccc3C2)cn1 | 27.1% |
| Cc1cc(C)n(CC(C)Nc2ccc(Cl)c(C#N)n2)n1 (stereo not shown) | 6.01% |
| O=C(CCl)Nc1cc(Cl)ccc1-n1cncn1 | 11% |
| CC1(C)OB(c2ccc(OCCS(C)(=O)=O)cc2)OC1(C)C | -1.19% |
| O=C(CCl)NC1CCC(C(F)(F)F)CC1 (stereo not shown) | 8.89% |
| O=C1CN=C(S)N1C1CCCCCC1 | 5.4% |
| C=CC(=O)NC1CCC(=O)NC1C1CCCO1 (stereo not shown) | 16.5% |
| N#CC(C(=O)NCc1ccccc1)=C1NCCCN1 | 4.85% |
| CN(Cc1nccn1C(F)F)c1cccnc1C#N | 17.4% |
| O=C(CCl)Nc1nc2c(s1)CCCC2 | 22.8% |
| CC(Sc1nccnc1C#N)c1cccs1 (stereo not shown) | 7.28% |
| CC(C)N1CCC(Nc2ccc(C#N)nc2)C1=O (stereo not shown) | 27.9% |
| C=CC(=O)N1CCC(C)(N2CCOCC2)CC1 | 10% |
| COCCNC(=O)C(C#N)=Cc1cccc(O)c1 | 10.3% |
| C=CC(=O)NC1CCCC2(CC2)C1 (stereo not shown) | 7.63% |
| COc1cc(C=C(C#N)C(=O)NC(C)C)cc(OC)c1 | 11.4% |
| O=C(CCl)Nc1ccccc1S(=O)(=O)C(F)F | 6.1% |
| C=CC(=O)Nc1ccc(C)cn1 | 0.151% |
| CC(=O)N1c2ccc(C(=O)CCl)cc2CC1C (stereo not shown) | 5.96% |
| C=CC(=O)NCc1nc2ccccc2c(=O)n1C | 6.79% |

| SMILES | Inhibition % |
| --- | --- |
| CN(Cc1ccc(Cl)c(Cl)c1)C(=O)CCl | 43.3% |
| CCCNC(=O)C(C#N)=Cc1ccc(N)nc1 | 14.7% |
| CC(=O)N1CCC(NS(=O)(=O)C=Cc2ccccc2)CC1 | 9.02% |
| C=CC(=O)NC1CC(c2cccc(Cl)c2)C1 (stereo not shown) | 5.96% |
| Cc1ccc(C(=O)O)cc1B1OC(C)(C)C(C)(C)O1 | 9.09% |
| O=C(c1ccccc1)N1CC(S(=O)(=O)F)C1 | 35.6% |
| N#Cc1nc(Cl)sc1Cl | 5.66% |
| O=C(Nc1cccc(S(=O)(=O)F)c1)c1ccoc1C(F)(F)F | 96.8% |
| COc1cc(C=C(C#N)C(N)=O)cc(Cl)c1OC | -16.5% |
| C=CC(=O)N1CC(N2CCn3c(C)nnc3C2)C1 | 9.24% |
| O=C(CCl)NC12CC3CC(CC(C3)C1)C2 | 3.94% |
| Clc1cc(Cl)cc(OCC2CO2)c1 (stereo not shown) | 9.31% |
| CN(C)C(=O)Oc1cccc(-c2nnco2)c1 | 28.8% |
| O=C(CCCl)NCc1ccccc1Cl | 4.27% |
| CC(CC(O)c1ccc(F)cc1)Nc1ccc(C#N)nc1 (stereo not shown) | 9.7% |
| CC1(C)OB(c2ccc(Oc3ccccc3)cc2F)OC1(C)C | 8.35% |
| C=CC(=O)N1CC(C(C)C)c2ccccc21 (stereo not shown) | 5.57% |
| C=CC(=O)Nc1ccc2c(c1)nc(C1CC1)n2C | 28.8% |
| O=C(CCl)Nc1cccc(S(=O)(=O)N2CCCC2)c1 | 7.91% |
| N#Cc1cc(C(=O)N[C@H]2CCO[C@@H]2c2cccnc2)c[nH]1 | 14.2% |
| N#Cc1ncn(CC(=O)N2CCCC2)n1 | 5.17% |
| O=C1CCC(=O)N1CC(=O)N1CCCc2ccccc21 | 10.8% |
| N#Cc1c(Cl)nc2cc(Cl)ccn12 | 9.52% |
| C=CCCCOc1cccc(B2OC(C)(C)C(C)(C)O2)c1 | 3.29% |
| C=CC(=O)N1CCC(c2ncc(Cl)cn2)CC1 | 5.57% |
| CC(=O)c1oc2ccccc2c1NC(=O)CCl | 9.9% |

| SMILES | Inhibition % |
| --- | --- |
| CN(Cc1ccc(Cl)s1)C(=O)CCl | 30.4% |
| O=S(=O)(OCC(F)(F)F)c1cccnc1 | 8.17% |
| C=CC(=O)NCC(=O)N1CCCO1 | 4.97% |
| C=CC(=O)N[C@@H]1C[C@H]2CC[C@@H]1O2 (racemic) | 7.42% |
| C=CC(=O)N(Cc1ccccn1)C1CC1 | 6.59% |
| OB(O)c1ccccc1OCC1CC1 | -2.75% |
| Cc1cc(C=C(C#N)C(=O)NCC2CCCO2)ccc1F (stereo not shown) | 2.68% |
| C=CC(=O)N1CCN(C(=O)c2c(F)cccc2F)CC1 | 6.23% |
| C=CCNC(=O)C(C#N)=Cc1ccc(SC)cc1 | 11.7% |
| C=CC(=O)Nc1ccc(F)c(F)c1 | 7.82% |
| O=C(CCl)C1CCCCO1 (stereo not shown) | 94.5% |
| C=CC(=O)N[C@@H]1CC(=O)N(C)[C@H]1c1cnn(C)c1C | 12.7% |
| O=S(=O)(F)c1ccc(N2CCc3ccc(F)cc32)nc1 | 8.42% |
| Cc1ccn(S(=O)(=O)c2ccc(F)c(C)c2)n1 | 6.8% |
| CC(NC(=O)CCl)c1ccc(Cl)cc1Cl (stereo not shown) | 6.87% |
| N#CC1(CC2CO2)CC1 (stereo not shown) | 4.43% |
| Cc1nc(S)nc(O)c1CCO | 9.44% |
| O=C(O)c1ccnc(S)c1 | 11.8% |
| O=C(CCl)N1c2ccccc2OCC1c1ccccc1 (stereo not shown) | 28.9% |
| O=C(CCN1C(=O)CCC1=O)N1CCCCCCC1 | 1.96% |
| C=CC(=O)NCc1ncc2c(n1)CCC2 | 10.9% |
| Cc1ccc(NC(=O)CC2OCCCO2)cc1F | 3.78% |
| O=C(CCl)c1ccoc1 | 76.6% |
| C=CC(=O)NCc1c(C)nc(C)nc1C | 10.4% |
| O=C(CCl)C1CCCN1C(=O)C(F)(F)F (stereo not shown) | 80.8% |
| CC(=O)N(c1cc(C)cc(C)c1)C1C=CS(=O)(=O)C1 (stereo not shown) | 1.59% |

| SMILES | Inhibition % |
| --- | --- |
| CC1CCCCC1Nc1nccc(C#N)n1 (stereo not shown) | 4.22% |
| CN1CCC(n2c(S)nc3ccccc3c2=O)C1=O (stereo not shown) | 17.4% |
| C=CC(=O)NC1CCN(c2nccs2)CC1 | 9.77% |
| C=CC(=O)N1CCC2(CC1)CC2N(C)Cc1nccs1 (stereo not shown) | 2.97% |
| COCCn1c(C)cc(C=C(C#N)C(=O)O)c1C | 3.03% |
| COc1ccc(Cl)cc1S(=O)(=O)n1ccnc1 | 8% |
| N#Cc1cn(CCS)c(=O)[nH]c1=O | 75.1% |
| C=CC(=O)NC1CCC(N2CCCS2(=O)=O)CC1 (stereo not shown) | 5.22% |
| N#Cc1nccn1Cc1ccc(F)cc1F | 68.3% |
| N#CC(=Cc1ccc(Cl)s1)C(N)=O | 12.7% |
| Cn1ncc2c(=O)[nH]c(S)nc21 | 4.52% |
| O=C1CCN1c1cccc(O)c1 | 10.1% |
| C=CC(=O)NC1CCSCC1 | 3.21% |
| C=CC(=O)NCC1CCCC1(C)C (stereo not shown) | 13.6% |
| SCc1coc(-c2ccccc2)n1 | 0.694% |
| Cc1cccc(NC(=O)Cn2cnc(C#N)n2)c1C | 2.38% |
| CC1(C)OB(c2ccsc2C(F)(F)F)OC1(C)C | 6.88% |
| C=CC(=O)N1CCC(F)(F)C(C)C1 (stereo not shown) | 10.1% |
| C=CC(=O)NC1(c2ncc(Br)cn2)CCC1 | 0.851% |
| C=CC(=O)NC1CC2(CCN(C)CC2)Oc2ccccc21 (stereo not shown) | 9.28% |
| O=c1onc(-c2ncccn2)n1Cc1cccc(F)c1 | 7.68% |
| C=CC(=O)Nc1cn(C)nc1C1CC1 | 10% |
| CC(=O)c1ccc(N2CCN(C(=O)CCl)CC2)c(F)c1 | 11% |
